Data reported in PubChem BioAssay AID588591 (National Center for Advancing Translational Sciences (NCATS), 2011).
The whole screen tested about 390,000 compounds, of which about 4,700 (1.2%) were called active. The shares of active, inactive and inconclusive entries below differ from those in the screen. The call rests on the fitted dose curve; in most records, active means well fitted inhibition curve with a large enough effect; inconclusive means small, poorly fitted or top-dose-only effect, or another doubt; inactive means no such curve, though single readings can be large or run the other way. Potencies of inconclusive entries are doubtful fits and often do not repeat.

Target: DNA polymerase eta (Homo sapiens) (UniProt Q9Y253)
Experiment: qHTS for Inhibitors of Polymerase Eta
Details: recombinant Pol eta, fluorescent DNA replication assay; series mostly up to 114 µM; activity change, negative = inhibition: at the top concentration
How it was run: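 Pol eta (10 nM) was preincubated with compounds for 15 min at room temperature, after which fluorescent replication substrate (50 nM final) was added to start the reaction. Fluorescence was read kinetically at 0 and 10 min.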
On the % scale 0 is the no-effect control and ±100 the full control effect; potency means the concentration at half of the fitted maximal effect; tags describe the fitted curve by direction and shape.

Chain of UniProt Q9Y253 (Q9Y253 whole entry, looked up): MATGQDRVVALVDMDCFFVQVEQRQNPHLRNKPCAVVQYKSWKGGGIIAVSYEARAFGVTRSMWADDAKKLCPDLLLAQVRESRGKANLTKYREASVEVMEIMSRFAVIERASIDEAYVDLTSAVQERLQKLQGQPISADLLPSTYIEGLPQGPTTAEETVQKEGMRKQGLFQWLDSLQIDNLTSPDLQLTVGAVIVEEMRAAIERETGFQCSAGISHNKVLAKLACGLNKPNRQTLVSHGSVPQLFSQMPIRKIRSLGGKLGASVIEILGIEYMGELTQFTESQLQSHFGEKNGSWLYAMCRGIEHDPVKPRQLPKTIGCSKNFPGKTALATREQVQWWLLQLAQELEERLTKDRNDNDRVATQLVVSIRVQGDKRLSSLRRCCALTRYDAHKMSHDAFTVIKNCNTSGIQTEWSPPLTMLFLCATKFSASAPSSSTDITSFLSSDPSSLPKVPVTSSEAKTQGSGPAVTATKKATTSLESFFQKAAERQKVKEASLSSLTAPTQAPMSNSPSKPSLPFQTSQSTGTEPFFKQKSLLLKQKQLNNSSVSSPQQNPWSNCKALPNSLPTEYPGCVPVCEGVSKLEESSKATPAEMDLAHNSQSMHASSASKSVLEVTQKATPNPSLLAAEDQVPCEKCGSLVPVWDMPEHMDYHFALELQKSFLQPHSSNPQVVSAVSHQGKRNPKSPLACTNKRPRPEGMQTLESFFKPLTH

Row | Compound | Potency | activity change, negative = inhibition
1 | CCOC(=O)c1c(NC(=O)COc2cccc3c2CCN(C)C3=O)sc2c1CCC2 | inconclusive: 17.8 µM [inhibitor, partial curve] | 
2 | Cc1ccc(NC(=O)CN(C)C(=O)COc2ccc(Br)cc2)cc1 |  | inactive: -0.286%
3 | Cc1ccccc1NC(=O)/C(C#N)=C/c1ccc(-c2ccc(Cl)c(C(=O)O)c2)o1 | active: 31.6 µM | 
4 | CC1CCN(C(=O)CSc2nc3ccccc3s2)CC1 | inconclusive: 25.1 µM [inhibitor, partial curve] | 
5 | COC/C=C/C1=CC2=CC(=O)C(C)(OC(=O)C3CCCC3)C(=O)C2=CO1 (stereo not given) | active: 20 µM | 
6 | O=C(O)c1cc(N/N=C/c2c[nH]c3ccccc23)ccc1Cl | inconclusive: 35.5 µM [inhibitor, full curve] | 
7 | COc1ccc(/C=C(/NC(=O)c2ccc(OC)cc2)C(=O)NCCc2c[nH]c3ccccc23)cc1 | inconclusive: 12.6 µM [inhibitor, partial curve, poor fit] | 
8 | Cc1onc(-c2ccccc2Cl)c1C(=O)Oc1cc(N)n(S(=O)(=O)c2ccc(F)cc2)n1 | inconclusive: 20 µM [inhibitor, partial curve, poor fit] | 
9 | COc1ccc(CS(=O)(=O)/C(Cl)=C(/Cl)C(=O)Nc2ccc(OC)nc2)cc1 | inconclusive: 15.8 µM [inhibitor, full curve, poor fit] | 
10 | O=C1NN(c2cccc(Br)c2)C(=O)/C1=C/c1ccc(-c2cc([N+](=O)[O-])ccc2O)o1 | active: 10 µM | 
11 | CC(O)(c1ccc(Cl)cc1)C(c1ccccc1)c1ccccn1 (stereo not given) | inconclusive: 39.8 µM [inhibitor, partial curve, poor fit] | 
12 | Oc1cccc(N2Cc3ccccc3C2)c1 | inconclusive: 31.6 µM [inhibitor, single point] | 
13 | O=C(C(c1ccccc1)N1CCOCC1)N1CCOCC1 (stereo not given) |  | inactive: -12.1%
14 | Cc1ccc(NC(=O)CCc2nc3sc4c(c3c(=O)[nH]2)CCCC4)c(Br)c1 | active: 25.1 µM | 
15 | CC(=O)OCC1=C(C(=O)O)N2C(=O)C(NC(=O)C(C)Cn3cc(Cl)cn3)C2SC1 (stereo not given) | inconclusive: 39.8 µM [inhibitor, partial curve, poor fit] | 
16 | Cc1cc(C(=O)O)ccc1-n1c(C)cc(/C=C2\SC(=O)NC2=O)c1C | active: 50.1 µM | 
17 | O=C1C(Cl)=C(NCCN2CCOCC2)C(=O)c2ccccc21 |  | inactive: -5.85%
18 | CCCCS(=O)CC(COc1ccc(Cl)cc1)OC(=O)c1ccccc1 (stereo not given) | inconclusive: 79.4 µM [inhibitor, partial curve, poor fit] | 
19 | CC1SCCN1S(=O)(=O)c1ccc2ccccc2c1 (stereo not given) | inconclusive: 28.2 µM [inhibitor, single point] | 
20 | Cc1ccc(C(=O)/C=C/N(C)C)o1 |  | inactive: -17.5%
21 | COc1ccc(C)cc1NC(=O)c1cc2c(=O)n(Cc3cccnc3)ccc2nc1C |  | inactive: -6.25%
22 | Cc1c(-c2ccccc2Br)nc2ccccc2c1C(=O)O | inconclusive: 22.4 µM [inhibitor, partial curve, poor fit] | 

Row | Compound | Potency | activity change, negative = inhibition
23 | CCc1ccccc1NC(=O)Cc1ccc(NC(=O)N2CCCCc3ccccc32)cc1 |  | inactive: -14.4%
24 | COC(=O)c1ccc(-n2cnc(Cl)n2)c(F)c1 | inconclusive: 31.6 µM [inhibitor, partial curve, poor fit] | 
25 | O=C(CSc1cn(CCNC(=O)c2c(F)cccc2F)c2ccccc12)Nc1ccc(F)cc1 |  | inactive: -10.8%
26 | COc1ccc(Nc2cc(C)c3cc(NC(=O)Cc4ccc(Cl)cc4)ccc3n2)cc1 | inconclusive: 79.4 µM [inhibitor, partial curve, poor fit] | 
27 | O=C(O)CCCN1C(=O)/C(=C\c2ccc(-c3nc4ccccc4s3)o2)SC1=S | active: 15.8 µM | 
28 | Cc1ccc(N2C(=O)N(CC(=O)NC(c3ccccc3)c3ccccc3)C(=O)C2C)cc1 (stereo not given) | inconclusive: 56.2 µM [inhibitor, partial curve, poor fit] | 
29 | COc1ccccc1CNC(=O)C1CCN(S(=O)(=O)c2ccc3c(c2)CCCN3C(C)=O)CC1 |  | inactive: -23.2%
30 | COc1ccc(CCNC(=O)C2CCN(S(=O)(=O)c3cccc4cccnc34)CC2)cc1OC | inconclusive: 63.1 µM [inhibitor, partial curve, poor fit] | 
31 | Cc1ccc(/C=N/NC(=O)c2cc3ccccc3cc2O)o1 | inconclusive: 79.4 µM [inhibitor, partial curve, poor fit] | 
32 | O=C(COC(=O)c1ccco1)Nc1nc2c(F)c(F)c(F)cc2s1 | inconclusive: 39.8 µM [inhibitor, partial curve] | 
33 | CCn1c(S(=O)(=O)O)nc2ccccc21 | inconclusive: 89.1 µM [inhibitor, partial curve, poor fit] | 
34 | COc1cc(OC)cc(C(=O)NCC(=O)OCC(=O)NCc2ccco2)c1 | inconclusive: 25.1 µM [inhibitor, partial curve] | 
35 | COc1cc(CCC(=O)Nc2cccc(S(=O)(=O)N(C)C)c2)cc(OC)c1OC |  | inactive: -5.69%
36 | C[C@@H](NC(=O)[C@@H]1Cc2ccccc2CN1C(=O)OC(C)(C)C)C(=O)NCc1ccco1 | inconclusive: 89.1 µM [inhibitor, single point] | 
37 | CC(C)N(Cc1ccccc1)C(=O)C1CCCN(c2ncnc3onc(-c4ccc(F)cc4)c23)C1 (stereo not given) | inconclusive: 100 µM [inhibitor, partial curve, poor fit] | 
38 | O=C(O)C1=C(C(=O)O)C2C=CC1C2 | active: 20 µM | 
39 | COCCN1C(=O)c2oc3ccc(C)cc3c(=O)c2C12C(=O)N(C)c1ccccc12 (stereo not given) |  | inactive: -8.13%
40 | O=c1/c(=C/c2ccc(CNS(=O)(=O)c3ccccc3)o2)sc2n1CCN=2 | inconclusive: 89.1 µM [inhibitor, partial curve, poor fit] | 
41 | COC(=O)c1cc(=O)n2c(-c3ccccc3)csc2n1 |  | inactive: -1.1%
42 | COc1ccc(/C=C2/CC/C(=C\c3ccc(OC)c(OC)c3OC)C2=O)c(OC)c1OC | inconclusive: 11.2 µM [inhibitor, partial curve, poor fit] | 
43 | Cc1ccc(S(=O)(=O)/N=C(/Nc2ccc3[nH]c(=O)[nH]c3c2)c2ccccc2)cc1 | inconclusive: 89.1 µM [inhibitor, single point] | 
44 | CCc1ccc(NC(=O)Cc2ccc(-n3cccc3)cc2)cc1 | inconclusive: 31.6 µM [inhibitor, partial curve, poor fit] | 

Row | Compound | Potency | activity change, negative = inhibition
45 | Cc1oc(-c2ccc(Cl)cc2)nc1CN1CCC(C(=O)NCCCN2CCCC2=O)CC1 | inconclusive: 89.1 µM [inhibitor, single point] | 
46 | Cc1ccc2nc(/C(C#N)=C\c3ccc(N4CCOCC4)o3)[nH]c2c1 | inconclusive: 14.1 µM [inhibitor, full curve, poor fit] | 
47 | Cc1cc(-c2ccc(S(=O)(=O)N3CCN(c4ccc(Cl)cc4)CC3)s2)on1 |  | inactive: 7.56%
48 | O=C(/C=C/c1ccco1)N(Cc1ccccc1F)C1CCS(=O)(=O)C1 (stereo not given) | inconclusive: 79.4 µM [inhibitor, single point] | 
49 | O/C(=C\c1nc2ccccc2[nH]1)c1cccs1 | inconclusive: 56.2 µM [inhibitor, partial curve, poor fit] | 
50 | CC(=O)O[C@]1(C(C)=O)CC[C@H]2C3C=C(Cl)C4=CC(=O)[C@@H]5C[C@H]5[C@]4(C)C3CC[C@@]21C (stereo not given in full) |  | inactive: -6.01% [at 57.1 µM]
51 | CCOC(=O)c1sc(N2C(=O)C(O)=C(C(=O)c3ccco3)C2c2ccco2)nc1C (stereo not given) | inconclusive: 50.1 µM [inhibitor, partial curve, poor fit] | 
52 | Cc1nnc(SCC(=O)NC(=O)NCc2ccco2)s1 |  | inactive: -0.678%
53 | S=C(Nc1ccccc1Oc1ccccc1)NC1CCCC1 | inconclusive: 100 µM [inhibitor, partial curve, poor fit] | 
54 | Cc1ccc(CCNC(=O)c2cc3n(n2)CCCN(Cc2ccc(C)cc2)C3=O)cc1 |  | inactive: -3.47%
55 | O=C(O)c1cnn(-c2ccccc2)c1-c1ccncc1 | active: 22.4 µM | 
56 | CC1Cc2ccccc2N1S(=O)(=O)c1nnc(NC(=O)c2cccc(F)c2)s1 (stereo not given) | inconclusive: 100 µM [inhibitor, single point] | 
57 | CC(/C=C1\SC(=S)N(NS(=O)(=O)c2ccc(C)cc2)C1=O)=C\c1ccccc1 | active: 39.8 µM | 
58 | CC/C(=N/Nc1ccccc1)c1cnnc(SC)n1 | inconclusive: 17.8 µM [inhibitor, partial curve, poor fit] | 
59 | CCCCn1cc(S(=O)(=O)c2ccc(C)c(C)c2)c(=O)c2cc(F)c(N(CC)CC)cc21 |  | inactive: -20.9%
60 | C=CC[C@H](CC(=O)N(CCO)Cc1ccccc1)C(=O)N[C@H](COC(=O)[C@@H](CC=C)CC(=O)OC(C)(C)C)c1ccccc1 | inconclusive: 79.4 µM [inhibitor, partial curve, poor fit] | 
61 | O=C(Nn1cnnc1)c1cc(-c2ccccn2)nc2ccccc12 | inconclusive: 20 µM [inhibitor, partial curve, poor fit] | 
62 | O=C(C1=C(O)C(=O)N(CCN2CCOCC2)C1c1ccc(Cl)cc1)c1cc2ccccc2o1 (stereo not given) | inconclusive: 39.8 µM [inhibitor, single point] | 
63 | Cc1ccc(N(CC(=O)Nc2cc(C)ccc2C)S(=O)(=O)c2c(C)noc2C)cc1 | inconclusive: 79.4 µM [inhibitor, partial curve, poor fit] | 
64 | COCc1cc(C)nc(SCC[N+](C)(C)CC(=O)c2ccc(Br)cc2)c1C#N | inconclusive: 89.1 µM [inhibitor, partial curve, poor fit] | 
65 | Cc1cc(/C=C2\SC(=S)N(C)C2=O)c(C)n1-c1ccc(O)cc1 | inconclusive: 100 µM [inhibitor, partial curve, poor fit] | 
